Test results reported in ChEMBL document CHEMBL1201862, “PubChem BioAssay data set” (2004).
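Compound exposure: 48 hours, 5 concentrations, 96-well plates. GI50: concentration for 50% inhibition of growth.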 Active and inactive are the calls of the source. Rule as the data show it: active = GI50 up to about 1.1 µM and inactive = higher.

System: NCI-H322M
Assay: NCI tumour cell line growth inhibition, 48 h

| Compound | GI50 |
| --- | --- |
| CCOC(=O)c1c(N2CCOCC2)[nH]c(=O)c(C(c2c(O)c(C(=O)OCC)c(N3CCOCC3)[nH]c2=O)C(C)C)c1O | inactive: > 100 µM |
| CC1(C)CCC(Sc2ccccc2)O1 (stereo not given) | inactive: > 100 µM |
| COc1ccc(-c2nc3ccccc3c(=S)n2OC(C)=O)cc1 | inactive: 4.61 µM |
| C1CN2N3CCCC23C1 (stereo not given) | inactive: > 100 µM |
| Cc1cn(C2CC(O)C(CO)O2)c(=O)[nH]c1=O (stereo not given) | inactive: 1830 µM |
| N#CC1(C#N)NC(c2ccccc2)C(C#N)(C#N)NC1c1ccccc1 (stereo not given) | inactive: > 100 µM |
| O=C1/C(=C/c2ccc(O)c(O)c2)CC/C1=C\c1ccc(O)c(O)c1 | inactive: > 21.2 µM |
| O=C(c1ccccc1)c1sc2c(=O)c(C(=O)c3ccccc3)c(C(=O)c3ccccc3)sc2c(=O)c1C(=O)c1ccccc1 | inactive: 79.6 µM |
| CC(=O)OC1=CC2(OC(C)=O)CC(C)(C)C1C1C(=O)C=CC(=O)C12 (stereo not given) | inactive: > 100 µM |
| O=C(Cc1ccc(Cl)c(Cl)c1)N(CCc1ccc(Cl)c(Cl)c1)CCN1CCCC1 | inactive: 2.72 µM |
| O=C1OC(C2Cc3ccccc3C2=O)c2ccccc21 (stereo not given) | inactive: > 100 µM |
| COc1ccc(/C=C2\N=C(N3CCCC(CO)C3)NC2=O)cc1 (stereo not given) | inactive: > 100 µM |
| C=CCOc1ccc(C2c3c(n[nH]c3O)CC(O)(OCC)C2C(=O)OCC)cc1OC (stereo not given) | inactive: > 100 µM |
| CC(C)(C)C1=CC(=C(P(=O)(O)O)P(=O)(O)O)C=C(C(C)(C)C)C1=O | inactive: > 50 µM |
| CC1=C2C(=CC(C)(CO)C2O)C(=O)C(C)(O)C12CC2 (stereo not given) | active: 0.00984 µM |
| O=C(NC(Cc1ccccc1)C(=O)CCl)OCc1ccccc1 (stereo not given) | inactive: 17.6 µM |
| O=C(CCCNC(=O)OCc1ccccc1)OCc1ccc2c(c1)C(=O)c1ccccc1C2=O | inactive: > 100 µM |
| C=C1C(=O)OC2C3C(=C)[C@@H](OC(C)=O)CC3C(C)=CC(OC(=O)C(C)(O)C(C)OC(C)=O)[C@@H]12 (stereo not given in full) | inactive: 36.1 µM |
| COc1ccc(C(C)NNC(=O)c2cc[n+]([BH2-]C#N)cc2)cc1OC (stereo not given) | inactive: > 100 µM |
| C1=NN(Cc2ccccc2)C(N(Cc2ccccc2)Cc2ccccc2)N1 (stereo not given) | inactive: 19 µM |
| CN1CCN(C(=S)N(C)C(=O)c2ccco2)CC1 | inactive: > 100 µM |
| CC(N)Cc1ccc(C(=O)Cl)cc1 (stereo not given) | inactive: > 100 µM |
| CNn1c(C)n[nH]c1=O | inactive: > 100 µM |

| Compound | GI50 |
| --- | --- |
| O=CC12C3CCC1C2C(=O)C3 (stereo not given) | inactive: > 100 µM |
| O=[N+]([O-])c1ccc(C2CC(c3ccccc3Cl)=Nc3ccccc3S2)cc1 (stereo not given) | inactive: 13.5 µM |
| O=Cc1ccccc1CCn1c(=O)c2cc3c(=O)n(CCc4ccccc4C=O)c(=O)c3cc2c1=O | inactive: > 100 µM |
| O=C(O)CP(=S)(S)c1ccccc1 (stereo not given) | inactive: > 100 µM |
| NC(=O)c1ccc2c(c1)S(=O)(=O)c1ccccc1C2=O | inactive: > 100 µM |
| Cc1ccc([N+](=O)[O-])cc1S(=O)(=O)Nc1ccc(C2=NN(C(=O)c3ccccc3)C(c3ccccc3)C2)cc1 (stereo not given) | inactive: 33 µM |
| O=C(Nc1cccc([N+](=O)[O-])c1)c1nnn(-c2cccc([N+](=O)[O-])c2)c1O | inactive: > 100 µM |
| COc1cc(CNc2cnc3cc(N)ccc3n2)cc(OC)c1OC | inactive: 68.7 µM |
| C=C(C)c1nc(C#N)c(N)o1 | inactive: > 100 µM |
| COC(=O)c1cc(/C=C2\Cc3cc4c(cc3C2=O)CCC4)cc2c1CCC2 | inactive: > 100 µM |
| Nc1c(Br)cc(-c2nc3ccccc3s2)cc1Br | inactive: > 100 µM |
| COc1ccc(/C=C2\C(=O)N(NC(C)=O)c3ccccc32)cc1 | inactive: 41.3 µM |
| Fc1cccc(F)c1C1SCc2nc3cc(Cl)c(Cl)cc3n21 (stereo not given) | inactive: > 100 µM |
| CN(C)CCCNC(=O)c1cc(NC(=O)CCCn2c3ccccc3c3ccccc32)cn1C | inactive: 14.1 µM |
| O=C(NC1C=Nc2ccc([N+](=O)[O-])cc2NC1=O)c1cc(Cl)cc([N+](=O)[O-])c1 (stereo not given) | inactive: > 100 µM |
| Cc1cc(N(CCC#N)CCC#N)ccc1C(/N=N/c1ccc(Cl)cc1)=N\NC(=O)c1cc(Cl)ccc1O | inactive: > 100 µM |
| COCN1C(=O)[C@@H]2CCCN2C(=O)c2ccc(Cl)cc21 | inactive: > 100 µM |
| CC(C)CC(=O)NC(NC(C)C)(C(F)(F)F)C(F)(F)F | inactive: > 100 µM |
| COc1ccc2nc(-c3ccc(O)cc3)cc(O)c2c1 | inactive: 1.6 µM |
| Cc1ccc(-c2nnc3s/c(=C\c4ccc(N(C)C)cc4)c(=O)n23)cc1 | inactive: 67 µM |
| O=C(/C=C1/Nc2ccc([N+](=O)[O-])cc2NC1O)c1cccc([N+](=O)[O-])c1 (stereo not given) | inactive: 87.1 µM |
| CC(C)=CC1C(C(=O)O)C1(C)C (stereo not given) [CHRYSANTHEMIC ACID] | inactive: > 750 µM |
| O=[N+]([O-])c1cc(Cl)cnc1Br | inactive: 10.6 µM |

| Compound | GI50 |
| --- | --- |
| CC(C)=CCC[C@@H](C)c1c2ncc[nH]c-2c(C)c(=O)c1O | inactive: 26.3 µM |
| Cc1cc(C)c2c(c1)C(=O)/C(=C/c1ccccc1C(=O)O)C2 | inactive: 86.9 µM |
| Cc1cccc2cc3ccc4ccccc4c3cc12 | inactive: 70.1 µM |
| COC(=O)C(=Cc1cc(OC)c(OC)c(OC)c1-c1cc2c(cc1C1(C)OCCS1)OCO2)C(=O)OC (stereo not given) | inactive: 49.9 µM |
| COc1ccc2nc(C)cc(NCCCCCCCCCNc3cc(C)nc4ccc(OC)cc34)c2c1 | inactive: 2.13 µM |
| COc1ccc2c(c1)CCc1c-2n(CCN2CCCCC2)c2ccc(OC)cc12 | inactive: > 100 µM |
| NS(=O)(=O)c1ccc(/C=C/c2ccc(O)c(O)c2)cc1 | inactive: 44.6 µM |
| CC(C)(C)c1ccc(C(O)c2ccc(C(C)(C)C)cc2)cc1 | inactive: 18.5 µM |
| NCCn1cnc2nc(NC(=O)c3ccccc3)[nH]c(=O)c21 | inactive: > 100 µM |
| CC(=O)OCC(OC(C)=O)C(OC(C)=O)C(/C=N\Nc1nc2ccccc2c(=O)[nH]1)=N\Nc1nc2ccccc2c(=O)[nH]1 (stereo not given) | inactive: > 100 µM |
| c1ccc(-c2nc(-c3ccccc3)c(-c3ccccc3)[nH]2)cc1 | inactive: > 100 µM |
| CC1=C(Br)C(=O)c2c(O)ccc(O)c2C1=O | inactive: 1.61 µM |
| O=C1NC(=S)NC(=O)C1=Cc1ccc2ccccc2n1 | inactive: > 100 µM |
| C[C@]12CC[C@@H]3c4ccc(OC(=O)c5ccccc5)cc4CC[C@H]3[C@@H]1CCC2OC(=O)c1cccc2c(=O)c3ccccc3[nH]c12 (stereo not given in full) | inactive: 21.4 µM |
| CC(=O)OCC1OC(n2c3c(c(-c4ccc(Cl)cc4)c(C#N)c2=S)C(=O)CC(C)(C)C3)C(OC(C)=O)C(OC(C)=O)C1OC(C)=O (stereo not given) | inactive: > 65.6 µM |
| CC[C@H](C)C(=O)O[C@H]1CCC=C2C=C[C@H](C)[C@H](CC[C@@H]3C[C@@H](O)CC(=O)O3)[C@H]21 [MEVASTATIN] | inactive: 44.2 µM |
| Cc1cc(S(=O)(=O)NC2=NNC(C)CN2)c(S)cc1Cl (stereo not given) | inactive: 69.3 µM |
| CN(C)C(=O)C1CCC(=C2C(=O)OC(C)(C)OC2=O)N1C (stereo not given) | inactive: > 100 µM |
| Nc1ccc(-c2nc3cc(F)ccc3s2)cc1I | inactive: 9.59 µM |
| CNS(=O)(=O)NNS(=O)(=O)c1ccccc1 | inactive: > 100 µM |
| COc1cc(OC)c2c(O)c3c(cc2c1)CC(C)(C)CC3=O | inactive: > 100 µM |
| CC(C)CCCC(C)[C@H]1CCC2[C@@H]3CCC4Cc5nc6c(nc5C[C@]4(C)C3CC[C@@]21C)CC1CC[C@@H]2C(CC[C@@]3(C)C2CC[C@@H]3C(C)CCCC(C)C)[C@@]1(C)C6 (stereo not given in full) | inactive: > 100 µM |
| CN(NC(=O)/C(=C/c1ccc(O)cc1)NC(=O)c1ccccc1)c1ccnc2cc(Cl)ccc12 | inactive: 20.3 µM |

| Compound | GI50 |
| --- | --- |
| CC(=O)OC(CN1CCN(c2ccccn2)CC1)Cn1sc2nc(C)cc(C)c2c1=O (stereo not given) | inactive: 18.1 µM |
| O=C1[C@@H]2C(c3ccccc3F)=NO[C@@H]2C(=O)N1c1ccc(Cc2ccc(N3C(=O)[C@H]4C(c5ccccc5F)=NO[C@H]4C3=O)cc2)cc1 | inactive: > 100 µM |
| Cc1ccc(C[P+]2(c3ccccc3)CCCCC2)cc1.[O-][Cl+3]([O-])([O-])[O-] | inactive: 46 µM |
| OCC(O)C(O)C(O)c1nnn[nH]1 (stereo not given) | inactive: > 100 µM |
| c1ccc2c3c(c(N4CCOCC4)nc2c1)CCCC3 | inactive: 28.5 µM |
| COC1C(=[N+]=[N-])C(=O)NC(=O)N1C1OC(COC(c2ccccc2)(c2ccccc2)c2ccccc2)C(O)C1O (stereo not given) | inactive: 16.7 µM |
| CC(C)(O)[C@@H]1CC[C@](C)(C2[C@@H](O)C[C@@]3(C)C4C[C@H](OC5OCC(O)C(O)C5O)[C@H]5C(C)(C)[C@@H](OC6OCC(O)C(O)C6OC6OCC(O)C(O)C6O)CC[C@@]56C[C@@]46CC[C@]23C)O1 (stereo not given in full) | inactive: > 100 µM |
| CCCCC1=C(C(=O)N2CCOCC2)C2(OCCO2)C1=O | inactive: 37.3 µM |
| CC(NS(=O)(=O)c1ccc([N+](=O)[O-])cc1)C(=O)O (stereo not given) | inactive: > 100 µM |
| CCOc1ccc2nc3nc(O)nc(C)c3c(NC(C)(CO)CO)c2c1 | inactive: > 100 µM |
| C1=C\CCCCN2C[C@H]3CCCC/C=C\CCCCN4CC[C@@H]([C@H](CCCCCC/1)C4)[C@H](C3)C2 | inactive: 1.95 µM |
| Cc1cccc(/C=C2\CCCCCC2=O)c1 | inactive: > 100 µM |
| C(=C/c1nc2ccccc2o1)/c1ccc2c(c1)OCO2 | inactive: 23.1 µM |
| N=C1OC(CN2CCN(c3ccccc3)CC2)CN1C(=S)Nc1ccccc1 (stereo not given) | inactive: > 100 µM |
| COc1cc2c(cc1OC)C1CCc3ccccc3CN1CC2 (stereo not given) | inactive: > 100 µM |
| CCOC(=O)Oc1ccc2c(c1)c(=O)c1c(NCCN(CC)CC)ccc3nnn2c31 | inactive: 1.71 µM |
| COc1cc(/C=C(\NC(=O)c2ccccc2)c2nc3cc([N+](=O)[O-])ccc3[nH]2)cc(OC)c1OC | inactive: 39.6 µM |
| COc1ccc2c(c1)NC1(CCN(CCCC(=O)c3ccc(F)cc3)CC1)N=N2 | inactive: 30.4 µM |
| Oc1cc(-c2ccccc2)nc2cc(Cl)ccc12 | inactive: 8.61 µM |
| COc1cccc(C2c3cc4c(cc3OC(O)(CO)C2C(=O)O)OCO4)c1.COc1cccc(C2c3cc4c(cc3OC3(O)COC(=O)C23)OCO4)c1 (stereo not given) | inactive: > 100 µM |
| CCOC(=O)C1Sc2ccccc2N=C1C (stereo not given) | inactive: > 100 µM |
